In the RNAGym collection of RNA variant scans (doi:10.7554/elife.90254):
The source gives no read counts; variants with many changes may rest on few reads.

B1: LINE1-full (parent)
chain: UACGUAGGUGGUUUUCCCCUGAUAGUGCUAAGGGGGCCUGGAAGUUUGGACUGGGCAGAGCUCAACACAGCGUGGCAAAGUGGCUGUGGCUAGACUGCCUCUCUGGAUUCCUCGUCACUCAGCAGGGCAUCUCUGAGAGAAAUGCC

Variants of: B1
Experiment: self-cleavage, relative activity (ratio to wild type); higher = more cleavage; in vitro, sequencing; the parent is a self-cleaving ribozyme

Question: Which self-cleavage does the source give for UACGUAGGUGGUUUUCCCCUGAUAGUGCUAAGGCGGCCUGGAAGUUUGGUCUGGGCAGAGCUCAACACAGCGUGGCAAAGUGGCUGUGGCUAGACUGCCUCUCUGGAUUCCUCGUCACUUAGCAGGGCAUCUCUGAGAGAAAUGCC here?
Answer: Its self-cleavage is 1.65.

Question: Which self-cleavage does the source give for UACGUAGGUGGUUUUCCCCUGAUAGUGCUAAGGCGGCCUGGAAGUUUAGACUGGGCAGAGCUCAACACAGCGAGGCAGAGUGGCUGUGGCUAGACUGCCUCUCUGGAUUCCUCGUCACUCAGCAGGGCAUCUCUGAGAGAAAUGCC here?
Answer: The self-cleavage was 0.87.

Question: Which self-cleavage does the source give for UACGUAGGUGGUUUUCCCCUGAUAGUGCUAAGGCGGCCUGGAAGUUUGGACUGGGCAGAGCUCAACACAGCGUGGCAAAGUGGCUGUGGCUAGACAGCCUCUCUGGAUUCCUCGUCACUCAGCAGAGCAUCUCUGAGAGAGAUGCC here?
Answer: The self-cleavage was 0.08.

Question: Which self-cleavage does the source give for UACGUAGGUGGUUUUCCCCUGAUAGUGCUAAGGUGGCCUGGAAGUUUGGACUGGGCAGGGCUCGACACAGCGUGGCAAAGUGGCUGUGGCUAGACUGCCUCUCUGGAUUCCUCGUCACUCUGCAGGGCAUCUCUGAGAGAAAUGCC here?
Answer: The self-cleavage was 0.1.

Question: With UACGUAGGUGGUUUUCCCCUGAUAGUGCUAAGGUGGCCUGGAAGUUUGGACUGGGCAGGGCUCAACACAGCGUGGCAAAGUGGCUGCGGCUAGACUGCCUCUCUGGAUUCCUCGUCACUCAGCAGGGCAUCUCUGAGAGAAAUGCC as the variant, how does the self-cleavage read?
Answer: Its self-cleavage is 0.1.

Question: Which self-cleavage does the source give for UACGUAGGUGGUUUUCCCCUGAUAGUGCUAAGGUGGCCUGGAAGUUUGGACUGGGCAGAGCUCAACACAGCGUGGCAAUGUGGCUGUGGCUAGACUGCCUCUCUGGAUUCCUCGUCACUCAGCAGGGCAUCUCUGAGUGAAAUGCC here?
Answer: The self-cleavage was 2.69.

Question: With UACGUAGGUGGUUUUCCCCUGAUAGUGCUAAGGUGGCCUGGAAGUUUGGACUGGGCAGAGCUCAACACAGCGUGGCAAAGUGGCUGUGGCUAGACUGCCUCUCUGGAUUCCUCGUCACUCAGCGGGGCAUCUCUGAGGGAAAUGCC as the variant, how does the self-cleavage read?
Answer: Its self-cleavage is 1.48.

Question: Which self-cleavage does the source give for UACGUAGGUGGUUUUCCCCUGAUAGUGCUAAGGUGGCCUGGAAGUUUGGACUGGGCAGAGCUCAACACAGCGUGGCAAAGUGGCUGUGGCUAGACUGCCUCUCUGGAUUCCUCGUCACUCAGCAGGGCUUCGCUGAGAGAAAUGCC here?
Answer: Its self-cleavage is 2.04.

Question: Which self-cleavage does the source give for UACGUAGGUGGUUUUCCCCUGAUAGUGCUAAGGUGGCCUGGAAGUUUGGACUGGGCAGAGCUCAACACAGCGUGGUAAAGUGGCUGUGGCUAGACUGCCUCUCUGGAUUCCUCGUCACUCAGCAGGGCAUCUCUGAGAGGAAUGCC here?
Answer: Its self-cleavage is 2.2.

Question: Which self-cleavage does the source give for UACGUAGGUGGUUUUCCCCUGAUAGUGCUAAGGUGGCCUGGAAGUUUGGACUGGGCAGAGCUCAACACAGCGUAGCAAAGCGGCUGUGGCUAGACUGCCUCUCUGGAUUCCUCGUCACUCAGCAGGGCAUCUCUGAGAGAAAUGCC here?
Answer: The self-cleavage was 1.01.

Question: With UACGUAGGUGGUUUUCCCCUGAUAGUGCUAAGGUGGCCCGGAAGUUUGGACUGGGCAGAGCUCAACACAGCGUGGCAAAGUGGCUGUGGCUAGACUGCCUCUCUGGAUUCCUCGUCACUCAGCAGGGCAUCUCUGAGAGAGAUGCC as the variant, how does the self-cleavage read?
Answer: The self-cleavage was 1.09.

Question: With UACGUAGGUGGUUUUCCCCUGAUAGUGCUAAGGUGGCCUGGAAGCUUGGACUGGGCAGAGCCCAACACAGCGUGGCAAAGUGGCUGUGGCUAGACUGCCUCUCUGGAUUCCUCGCCACUCAGCAGGGCAUCUCUGAGAGAAAUGCC as the variant, how does the self-cleavage read?
Answer: Its self-cleavage is 0.

Question: With UACGUAGGUGGUUUUCCCCUGAUAGUGCUAAGGUGGCCUGGAAGUUUGGACCGGGCAGAGCUCAACACAGCGUGGCAAAGUGGCUGUGGCUAGACUGCCUCUCUGGGUUCCUCGUCACCCAGCAGGGCAUCUCUGAGAGAAAUGCC as the variant, how does the self-cleavage read?
Answer: Its self-cleavage is 1.84.

Question: For UACGUAGGUGGUUUUCCCCUGAUAGUGCUAAGGUGGCCUGGAAGUUUGGACUGGGCAGAGCUCAACACAGCGCGGCAAAGUGGCUGUGGCUAGACUGCCUCUCUGGAGUCCUCGUCACUCAGCAGGGCAUCUCUGAGAGAAAUGCC, which self-cleavage is on record?
Answer: Its self-cleavage is 1.38.

Question: For UACGUAGGUGGUUUUCCCCUGAUAGUGCUAAGGUGGCCUGGAAGUUUGGACUGGGCAGAGCUCAACACAGCGUGGCAAAGUGGCUGUGGCCAGACUGCCUCUCUGGAUUCCUCGUCACUCCGCAGGGCAUCUCUGAGAGAAAUGCC, which self-cleavage is on record?
Answer: The self-cleavage was 1.09.

Question: Which self-cleavage does the source give for UACGUAGGUGGUUUUCCCCUGAUAGUGCUAAGGGAGCCUGGGAGUUUGGUCUGGGCAGAGCACAACACAGCGUGGCAAAGUGGCUGUGGCUAGACUGCCUCUCUGGAUUCCUCGUCACUCAGCAGGGCAUCUCUGAGAGAAAUGCC here?
Answer: The self-cleavage was 0.09.

Question: With UACGUAGGUGGUUUUCCCCUGAUAGUGCUAAGGGAGCCUGGACGUUAGGACUGGGCAGGGCUCAACACAGCGUGGCAAAGUGGCUGUGGCUAGACUGCCUCUCUGGAUUCCUCGUCACUCAGCAGGGCAUCUCUGAGAGAAAUGCC as the variant, how does the self-cleavage read?
Answer: The self-cleavage was 0.14.

Question: For UACGUAGGUGGUUUUCCCCUGAUAGUGCUAAGGGAGCCUGGAGGUUUGGACUGGGCAGAGCUCAACACAGCGUGGCAAAGUGGCUGUGGCUACACUGCCUCUCUGGAUUCCUCGUCACUCAGCAGGGCAUCUCUGAGAGAAAUGCC, which self-cleavage is on record?
Answer: Its self-cleavage is 0.04.

Question: For UACGUAGGUGGUUUUCCCCUGAUAGUGCUAAGGGAGCCUGGAAGUUUGGGCUGGGCAGAGCUCAACACAGCGUGGCAGAGUGGCUGUGGCUAGACUGCCUCUCUGGAUUCCUCGUCACUCAGCAGGGCAUCUCUGAGAGAAAUGCC, which self-cleavage is on record?
Answer: The self-cleavage was 0.08.

Question: With UACGUAGGUGGUUUUCCCCUGAUAGUGCUAAGGGAGCCUGGAAGUUUGGGCUGGGCAGAGCUCAACACAGCGUGGCAAUGUGGCUGUGGCUAGACUGCCUCUCUGGAUUCCUCGUCACUCGGCAGGGCAUCUCUGAGAGAAAUGCC as the variant, how does the self-cleavage read?
Answer: Its self-cleavage is 1.05.
